Experimental data: PubChem BioAssay AID1460 (National Center for Advancing Translational Sciences (NCATS), 2008)
The campaign covered roughly 270,000 compounds. About 5,800 (2.1%) were called active. The shares of active, inactive and inconclusive entries below differ from those in the screen. Calls follow the shape of the dose curve; as a rule, active = well fitted inhibition curve with a large enough effect; inconclusive = small, poorly fitted or top-dose-only effect; inactive = flat fitted curve, though single readings scatter. Where the call is inconclusive, the potency comes from a doubtful curve fit.
% is scaled to controls: 0 for no effect and ±100 for the full control effect; potency is read from the fitted curve at half-maximal effect; tags tell the direction and shape of the fitted curve.
Also: nearly all actives have a fitted effect of over 55% in size.

The compounds below were run against Microtubule-associated protein tau (Homo sapiens) (UniProt P10636) (assay: qHTS for Inhibitors of Tau Fibril Formation, Thioflavin T Binding). Conditions: recombinant tau K18 P301L, heparin-induced fibrillization, ThT fluorescence; series mostly up to 57.4 µM.
Chain of UniProt P10636 (P10636 whole entry, looked up): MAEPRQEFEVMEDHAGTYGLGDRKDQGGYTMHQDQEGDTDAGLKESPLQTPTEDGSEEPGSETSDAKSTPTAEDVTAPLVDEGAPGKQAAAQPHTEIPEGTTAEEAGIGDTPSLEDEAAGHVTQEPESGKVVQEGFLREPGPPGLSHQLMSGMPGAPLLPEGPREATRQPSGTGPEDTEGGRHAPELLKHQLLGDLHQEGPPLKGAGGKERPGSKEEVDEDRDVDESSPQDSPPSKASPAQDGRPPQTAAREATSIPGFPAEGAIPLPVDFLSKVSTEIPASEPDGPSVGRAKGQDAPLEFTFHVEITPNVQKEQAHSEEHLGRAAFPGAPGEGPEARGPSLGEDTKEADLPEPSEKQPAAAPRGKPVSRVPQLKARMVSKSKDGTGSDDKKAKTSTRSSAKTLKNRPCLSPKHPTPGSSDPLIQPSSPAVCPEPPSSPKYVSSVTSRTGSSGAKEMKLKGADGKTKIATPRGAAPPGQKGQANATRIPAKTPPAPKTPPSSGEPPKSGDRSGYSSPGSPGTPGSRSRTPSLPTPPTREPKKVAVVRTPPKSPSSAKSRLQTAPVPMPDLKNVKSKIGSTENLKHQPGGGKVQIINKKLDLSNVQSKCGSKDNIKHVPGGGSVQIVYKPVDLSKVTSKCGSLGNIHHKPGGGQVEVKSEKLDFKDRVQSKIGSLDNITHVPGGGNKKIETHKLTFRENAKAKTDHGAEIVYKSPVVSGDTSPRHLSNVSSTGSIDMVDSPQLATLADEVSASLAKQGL
Procedure, shortened: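 Fibril formation assay: tau K18 P301L at 15 uM with trace Alexa 594 label, heparin inducer 20 uM, pH 7 sodium acetate buffer, 37 C for 6 hr; endpoint ThT signal.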
For `CCCCCC(=O)Nc1nc(C)c(-c2csc(Nc3cc(OC)ccc3OC)n2)s1`, the Potency was active: 15.8 µM. `COc1ccc(C2=NN(C(=O)CSc3cn(C)c4ccccc34)C(c3ccc(OC)cc3)C2)cc1` (centres undefined) was tested, and the Potency was inconclusive: 15.8 µM [inhibitor, partial curve]. In the case of `CCOc1cc(C(=O)N(Cc2nc(-c3ccc(C)cc3)no2)C(C)C)cc(OCC)c1OCC`, the Potency is reported as inconclusive: 39.8 µM [inhibitor, single point]. With `CCc1cnc2c(c1SCc1c(F)cccc1Cl)c(=O)n(C)c(=O)n2C` the Potency was “inactive”. With `Cc1[nH]c2ccccc2c1/C=N/NC(=O)CNC(=O)COc1ccccc1` the Potency was inconclusive: 7.94 µM [inhibitor, partial curve]. `Cc1oc(-c2ccccc2)nc1Cn1c(SCc2cccc(C(F)(F)F)c2)nc2cccnc21` was tested, and the Potency was inconclusive: 22.4 µM [inhibitor, single point]. For `Nc1n[nH]c(N)c1N=Nc1ccccc1`, the Potency was inconclusive: 20 µM [inhibitor, partial curve]. In the case of `O=C1CN(S(=O)(=O)c2ccc(F)cc2)CC(=O)N1CCc1ccccc1`, the Potency is reported as “inactive”. `O=C(CN1CCC(O)(c2ccc3c(c2)OCO3)CC1)NC1CCCCC1` was tested, and the Potency was “inactive”. `COc1ccc(C(=O)/C(C#N)=N/Nc2ccc([N+](=O)[O-])cc2)cc1` was tested, and the Potency was active: 3.98 µM. With `COc1ccccc1OCc1nc2ccccc2[nH]1` the Potency was “inactive”. For `CCOc1ccc(CC(=O)C2=C(N3CCOCC3)CC(C)(C)CC2=O)cc1OCC`, the Potency was inconclusive: 39.8 µM [inhibitor, single point]. `COc1ccc2nc(/N=C(\N)NC(=O)N3c4ccccc4Sc4ccccc43)nc(C)c2c1` was tested, and the Potency was inconclusive: 14.1 µM [inhibitor, partial curve]. For `CC(/C=N/n1c(-c2cc(C)[nH]n2)n[nH]c1=S)=C\c1ccccc1`, the Potency was inconclusive: 22.4 µM [inhibitor, partial curve, poor fit]. `COc1ccc(NC(=S)N/N=C2\CC(C)(C)Oc3ccc(OC)cc32)cc1` was tested, and the Potency was inconclusive: 14.1 µM [inhibitor, partial curve]. `CCc1ccc(CN2C(=O)c3ccccc3C2C(=O)NC2CCCCCC2)cc1` (centres undefined) was tested, and the Potency was “inactive”. `CCNC(=S)NNC(=O)c1cccn(Cc2ccc(Cl)cc2Cl)c1=O` was tested, and the Potency was “inactive”. In the case of `O=[N+]([O-])c1ccc(CSc2nc3ccccc3[nH]2)cc1`, the Potency is reported as inconclusive: 17.8 µM [inhibitor, partial curve]. For `CCCCCC(=O)N1CCN(CCN=CC2=C(O)CC(c3ccco3)CC2=O)CC1` (centres undefined), the Potency was inconclusive: 39.8 µM [inhibitor, single point]. With `CCN(CC)C(=O)Cn1c(=O)n(-c2ccc(Cl)cc2)c(=O)c2c3c(sc21)CCCCC3` the Potency was “inactive”. With `CCOC(=O)C1CSC(Cc2ccc(OCc3ccc([N+](=O)[O-])cc3)cc2)N1` (centres undefined) the Potency was inconclusive: 20 µM [inhibitor, partial curve]. For `CC(C)CO/N=C1/C[C@@H](O)[C@@H](O)[C@@H]2[C@@H]3C(=O)N(Cc4ccc5c(c4)OCO5)C(=O)[C@H]3CC[C@H]12`, the activity, negative = inhibition was inactive: -11.4% [at 11.5 µM]. `CCC(=O)Nc1cc(OC)c(NC(=O)c2ccccc2)cc1OC` was tested, and the Potency was inconclusive: 28.2 µM [inhibitor, partial curve]. `O=[N+]([O-])c1ccc(Sc2cccc[n+]2[O-])c2nonc12` was tested, and the Potency was active: 5.01 µM. With `CCCN(Cc1cccs1)C(=O)Nc1cc(C)cc(C)c1` the Potency was “inactive”. For `N/C(=N\OC(=O)c1ccccc1Cl)c1ccncc1`, the Potency was inconclusive: 1.78 µM [inhibitor, full curve, poor fit]. For `C/C=C/C=C\C(=O)Nc1cccc(C2=NOC3(C2)C[C@H](C(N)=O)N(C(=O)/C=C/C)C3)c1` (some centres undefined), the Potency was “inactive”. `CCOC(=O)c1c(N)n(-c2ccc(N)cc2)c2nc3ccccc3nc12` was tested, and the Potency was inconclusive: 20 µM [inhibitor, single point]. With `NC(=S)N/N=C\c1ccc(-c2cccc(Cl)c2Cl)o1` the Potency was inconclusive: 15.8 µM [inhibitor, partial curve]. With `COc1cc(/C=C2\SC(=S)N(Nc3ccccc3)C2=O)cc(OC)c1OC` the Potency was inconclusive: 12.6 µM [inhibitor, partial curve]. `COc1ccc(S(=O)(=O)N2Cc3ccccc3CC2C(=O)O)cc1` (centres undefined) was tested, and the Potency was inconclusive: 28.2 µM [inhibitor, partial curve]. In the case of `O=[N+]([O-])c1nn(-c2ccc3c(c2)OCCO3)n(O)c1=NCc1ccc(F)cc1Cl`, the Potency is reported as inconclusive: 4.47 µM [inhibitor, partial curve]. In the case of `Cc1ccc(C)c(CSc2cn(CC(=O)N3CCCC3)c3ccccc23)c1`, the Potency is reported as inconclusive: 15.8 µM [inhibitor, partial curve]. For `COc1ccc2cc(-c3nc(-c4ccc(N(C)C)cc4)no3)c(=O)oc2c1`, the Potency was inconclusive: 1.12 µM [inhibitor, full curve]. `Cc1nc(Nc2nc3ccccc3o2)nc(C)c1C` was tested, and the Potency was inconclusive: 8.91 µM [inhibitor, partial curve]. For `O=C(N=c1ccn(-c2nc3ccccc3nc2NS(=O)(=O)c2ccc(Cl)cc2)cc1)c1ccccc1Cl`, the Potency was inconclusive: 2.51 µM [inhibitor, full curve, poor fit]. With `CSc1ccc(N2CCN(CCCNC(=O)Nc3ccccc3F)CC2)cc1` the Potency was inconclusive: 1.26 µM [inhibitor, full curve, poor fit]. `CCOC(=O)c1[nH]c2ccccc2c1NC(=O)c1ccc(S(=O)(=O)N(C)C)cc1` was tested, and the Potency was “inactive”. In the case of `CCOc1ccc(CCNC(=O)CCn2c(=O)c3cccn3c3ccc(F)cc32)cc1OCC`, the Potency is reported as “inactive”. `CCOc1cc(-c2cc(-c3ccc(C)o3)nc(N)c2C#N)ccc1O` was tested, and the Potency was “inactive”. With `Cc1ncc(CO)c(/C=N/NC(=S)Nc2ccc(Cl)c(Cl)c2)c1O` the Potency was inconclusive: 25.1 µM [inhibitor, single point]. In the case of `CC(C)=C1SC(N2CCN(c3cccc(C)c3)CC2)=NC1=O`, the Potency is reported as inconclusive: 14.1 µM [inhibitor, partial curve]. For `O=C1CC(Nc2ccc(N3CCOCC3)cc2)C(=O)N1c1ccccc1` (centres undefined), the Potency was active: 15.8 µM. `CCC12CN3CC(CC)(CN(C1)C3c1c[nH]c3ccccc13)C2=O` (centres undefined) was tested, and the Potency was “inactive”.
